# Out of some 220,000 compounds screened, about 5,700 (2.6%) were called active. The inconclusive results got no clear call from the source; some entries with a clear call stand among them for comparison. Calls follow the shape of the dose curve; as a rule, active = well fitted inhibition curve with a large enough effect; inconclusive = small, poorly fitted or top-dose-only effect; inactive = no such curve, though single readings can be large or run the other way. Potencies beside an inconclusive call are fits to weak or partial responses and may not hold up.
# Target: Lysine-specific demethylase 5B (Homo sapiens) (UniProt Q9UGL1)
# UniProt Q9UGL1, sequence (Q9UGL1 whole entry, looked up): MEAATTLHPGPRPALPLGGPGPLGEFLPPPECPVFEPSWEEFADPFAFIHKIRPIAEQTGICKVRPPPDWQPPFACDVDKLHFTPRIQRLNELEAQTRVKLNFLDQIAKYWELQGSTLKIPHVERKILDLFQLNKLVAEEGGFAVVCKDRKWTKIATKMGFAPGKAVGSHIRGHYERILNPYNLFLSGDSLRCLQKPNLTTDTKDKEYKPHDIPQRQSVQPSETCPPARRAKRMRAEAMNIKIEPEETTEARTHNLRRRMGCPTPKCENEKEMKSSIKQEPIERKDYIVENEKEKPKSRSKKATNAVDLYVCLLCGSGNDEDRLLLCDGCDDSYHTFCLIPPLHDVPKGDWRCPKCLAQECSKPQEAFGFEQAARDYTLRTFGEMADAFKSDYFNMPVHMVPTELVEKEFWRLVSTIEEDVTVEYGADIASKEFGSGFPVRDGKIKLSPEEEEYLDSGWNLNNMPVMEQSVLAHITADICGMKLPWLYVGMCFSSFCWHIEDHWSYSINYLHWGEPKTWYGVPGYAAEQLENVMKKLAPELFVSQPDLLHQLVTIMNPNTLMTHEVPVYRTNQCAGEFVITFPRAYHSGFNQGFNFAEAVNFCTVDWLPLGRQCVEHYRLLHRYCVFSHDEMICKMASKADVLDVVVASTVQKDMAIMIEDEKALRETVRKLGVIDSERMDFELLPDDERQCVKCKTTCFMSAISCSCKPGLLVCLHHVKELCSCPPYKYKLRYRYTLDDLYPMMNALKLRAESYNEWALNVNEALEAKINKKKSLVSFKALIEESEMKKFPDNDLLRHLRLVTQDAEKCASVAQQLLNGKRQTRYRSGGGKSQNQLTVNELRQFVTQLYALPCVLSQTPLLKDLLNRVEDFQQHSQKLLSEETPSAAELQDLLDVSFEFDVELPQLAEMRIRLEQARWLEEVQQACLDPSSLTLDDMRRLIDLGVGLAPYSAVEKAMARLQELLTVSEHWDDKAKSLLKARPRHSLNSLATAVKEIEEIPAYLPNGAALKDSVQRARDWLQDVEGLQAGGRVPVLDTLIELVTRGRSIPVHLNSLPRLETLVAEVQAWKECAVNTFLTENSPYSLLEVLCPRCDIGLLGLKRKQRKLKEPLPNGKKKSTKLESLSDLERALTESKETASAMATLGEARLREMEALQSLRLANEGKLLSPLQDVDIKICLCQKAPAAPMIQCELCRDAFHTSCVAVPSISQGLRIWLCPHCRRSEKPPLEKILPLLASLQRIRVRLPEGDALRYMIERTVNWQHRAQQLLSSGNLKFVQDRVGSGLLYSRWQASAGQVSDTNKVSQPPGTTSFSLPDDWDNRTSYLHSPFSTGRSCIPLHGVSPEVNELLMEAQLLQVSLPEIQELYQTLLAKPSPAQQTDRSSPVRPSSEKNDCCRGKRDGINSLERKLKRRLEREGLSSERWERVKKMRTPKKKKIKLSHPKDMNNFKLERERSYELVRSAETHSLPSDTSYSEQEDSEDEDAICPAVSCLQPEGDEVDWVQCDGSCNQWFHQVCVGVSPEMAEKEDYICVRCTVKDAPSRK
# Experiment: Primary screen for KDM5B Histone Demethylases FDH-coupled qHTS; also: nearly all actives have a fitted effect of over 70% in size
# Conditions: FDH-coupled NADH fluorescence (FDH is formaldehyde dehydrogenase); series mostly up to 57.7 µM
# How it was run: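 Here, H3K4me3 peptide (12.5 µM in substrate mix) is demethylated by KDM5BΔAP, 200 nM final, after 10 min compound exposure. Formaldehyde product is coupled through FDH (0.25 U/mL in mix) to NADH fluorescence; 30-min ΔRFU feeds dose-response curves.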
# Potency is read from the fitted curve at half-maximal effect; tags tell the direction and shape of the fitted curve.
row,SMILES,Potency
1,CC(C)n1cc(CN2C[C@@H]3C(=O)N(Cc4ccc5c(c4)OCO5)C(=O)[C@@H]3C2)c2ccccc21,"inconclusive: 25.1 µM [inhibitor, single point]"
2,Cn1nnnc1NCc1ccc(-c2cccc(Cl)c2)o1,inactive
3,Cc1cc(=O)oc2c(C)c(OCC(=O)NCCCN3CCOCC3)ccc12,"inconclusive: 20 µM [inhibitor, partial curve, poor fit]"
4,Cc1cc(NC(=O)c2ccco2)c(=O)n(Cc2cccc(C(F)(F)F)c2)c1,"inconclusive: 39.8 µM [inhibitor, partial curve, poor fit]"
5,CCN(CC)C(=O)CN1C(=O)NC2(CCC(C)CC2)C1=O (configuration not stated),inactive
6,CSC(C)C(=O)Nc1ccc(Cl)c(Cl)c1 (configuration not stated),inactive
7,COc1ccc(S(=O)(=O)n2nc(-c3ccco3)nc2NCc2ccc(N(C)C)cc2)cc1,"inconclusive: 28.2 µM [inhibitor, single point]"
8,CCN(CC)C(=O)[C@@H]1C[C@@H](NC(=O)c2ccn(CC)c(=O)c2)CN1C(C)=O,active: 28.2 µM
9,COc1ccc(/C=C(\C#N)c2nc3ccccc3[nH]2)cc1OC,"inconclusive: 3.16 µM [inhibitor, full curve, poor fit]"
10,Cc1c(NC(=O)C2CCN(S(=O)(=O)Cc3ccc(F)cc3)CC2)c(=O)n(-c2ccccc2)n1C,inactive
11,COc1ccc(C2Cn3nnc(-c4noc(-c5ccc(C)s5)n4)c3CO2)cc1 (configuration not stated),"inconclusive: 7.08 µM [inhibitor, partial curve, poor fit]"
12,CCOc1cccc(C2c3[nH]c4ccccc4c3CCN2C(=O)c2ccccc2F)c1 (configuration not stated),"inconclusive: 12.6 µM [inhibitor, partial curve, poor fit]"
13,Cc1cnc(C2CCOCC2)n1C1CCCN(C(=O)COc2ccc(F)cc2)C1 (configuration not stated),inactive
14,CCOc1ncccc1C(=O)N1CCC(Cc2cccc(C(N)=O)c2)C1 (configuration not stated),inactive
15,CCC(Sc1nnc(C)n2c1cc1sccc12)C(=O)Nc1ccccc1F (configuration not stated),"inconclusive: 39.8 µM [inhibitor, single point]"
16,COc1ccc(-c2cc(-c3ccccc3O)cn3cncc23)cc1,active: 3.55 µM
17,Cc1cccc(C(C)C)c1NC(=O)c1cc(F)c(F)cc1Cl,inactive
18,COc1ccccc1-c1[nH]nc2ncc(C(=O)NCC3CC3)nc12,active: 31.6 µM
19,CCOP(=O)(OCC)c1nc(Cc2ccc(OC)cc2)oc1NCc1ccco1,inactive
20,O=S(=O)(Nc1nc2ccccc2nc1NCCc1ccccc1)c1ccc(Cl)cc1,"inconclusive: 1.78 µM [inhibitor, partial curve, poor fit]"
21,Cc1ccc([N+](=O)[O-])cc1S(=O)(=O)N1CCn2cccc2C1c1ccccc1F (configuration not stated),"inconclusive: 7.94 µM [inhibitor, partial curve, poor fit]"
22,COc1ccc(-c2noc([C@@H]3CCCN3C(=O)Cc3cccc(F)c3)n2)cc1OC,active: 25.1 µM
23,O=C(Cn1c(=O)n(Cc2ccc(Cl)cc2)c(=O)c2cccnc21)Nc1ccccc1C(F)(F)F,"inconclusive: 39.8 µM [inhibitor, single point]"

row,SMILES,Potency
1,S=C(NNc1ccnc2cc(Cl)ccc12)Nc1ccc(Cl)cc1Cl,"inconclusive: 22.4 µM [inhibitor, single point]"
2,Cc1ccc(CN2CCNC(=O)C2CC(=O)N(CC(C)C)CC(C)C)cc1 (configuration not stated),"inconclusive: 28.2 µM [inhibitor, partial curve, poor fit]"
3,Cc1cc(=O)oc2cc(OC(C)C(=O)NCc3ccncc3)ccc12 (configuration not stated),"inconclusive: 15.8 µM [inhibitor, partial curve, poor fit]"
4,CC1CCN(C(=O)CC(c2ccc(Cl)cc2)c2cn(C)c3ccccc23)CC1 (configuration not stated),"inconclusive: 25.1 µM [inhibitor, partial curve]"
5,Cc1cnc(NC(=O)Cc2ccc3ccccc3c2)s1,"inconclusive: 39.8 µM [inhibitor, single point]"
6,COc1ccc(OCCNC(=O)Cc2n[nH]c(=O)c3ccccc23)cc1,inactive
7,CC1CC(=O)Nc2cc(S(=O)(=O)N3CCN(c4ccccc4F)CC3)ccc2S1 (configuration not stated),inactive
8,COc1ccc2ccccc2c1CN1CCc2ccccc2C1,"inconclusive: 25.1 µM [inhibitor, single point]"
9,CCn1c(C2CCN(S(=O)(=O)c3cccc(Br)c3)CC2)nn(C)c1=O,inactive
10,O=C(CSc1nnc(-c2ccco2)n1C1CCCCC1)N1CCN(c2ccc(O)cc2)CC1,inactive
11,CC(=O)NC1(C)CCCN(Cc2cccc(-c3ccc4c(ccn4C)c3)c2)C1 (configuration not stated),"inconclusive: 35.5 µM [inhibitor, partial curve, poor fit]"
12,CC(Nc1ccc(C(F)(F)F)cc1[N+](=O)[O-])c1ccccn1 (configuration not stated),inactive
13,O=C1NC[C@@H](CCC(=O)N2CCCC2)N2C[C@@H](NCc3ccc(CO)o3)C[C@@H]12,"inconclusive: 35.5 µM [inhibitor, partial curve, poor fit]"
14,COc1cccc(C(=O)N2CC(Oc3ccc(-c4nc(-c5ccccc5)no4)cc3)C2)c1,inactive
15,O=C(Cc1cccs1)N1CCSCC1,inactive
16,CCOc1ccc(S(=O)(=O)N2CCC3(CC2)CN(C)CC3COC)cc1 (configuration not stated),"inconclusive: 28.2 µM [inhibitor, partial curve, poor fit]"
17,CCC(C)NC(=O)C(NC(=O)c1cccc(C)c1)C1CCN(C(=O)c2ccccc2F)CC1 (configuration not stated),"inconclusive: 28.2 µM [inhibitor, partial curve, poor fit]"
18,CCC1(N2CCN(C)CC2)CCN(S(=O)(=O)c2ccccc2)C1 (configuration not stated),inactive
19,COc1cc(/C=C/C(=O)c2ccc(OCC#N)cc2)ccc1OCCC(C)C,"inconclusive: 28.2 µM [inhibitor, partial curve, poor fit]"
20,Cc1ccc2nc(/C(C#N)=C/c3ccco3)[nH]c2c1,"inconclusive: 28.2 µM [inhibitor, partial curve, poor fit]"
21,COc1ccc(CN2CCN(Cc3ccccc3C(F)(F)F)CC2)c(OC)c1,"inconclusive: 2.82 µM [inhibitor, full curve, poor fit]"
22,Cn1c(C(=O)NCC2CC2)nc2nc(-c3ccccc3)c(Cl)cc21,active: 39.8 µM
23,O=C(N[C@H]1CO[C@H]2[C@@H]1OC[C@@H]2Nc1nccc(-c2cccs2)n1)c1ccc(C(F)(F)F)cc1,"inconclusive: 31.6 µM [inhibitor, partial curve, poor fit]"

row,SMILES,Potency
1,CO[C@H]1COCCN(C(=O)c2cc(C)oc2C(F)(F)F)C1,inactive
2,COCCCNc1nc2c([S+](=O)([O-])c3ccc(OC)cc3)nnn2c2ccccc12,active: 31.6 µM
3,CCOc1ccc(-c2cc3c(=O)n(Cc4nc(-c5ccc(OC(C)C)cc5)oc4C)ccn3n2)cc1Cl,"inconclusive: 0.891 µM [inhibitor, full curve, poor fit]"
4,CCCCN(CC)CCCNC(=O)Cn1ncc2c3ccccc3n(Cc3ccccc3F)c2c1=O,"inconclusive: 15.8 µM [inhibitor, single point]"
5,Cc1nc2sc3c(c2c2nc(C(=O)NCCN(C)C)nn12)CCCC3,"inconclusive: 28.2 µM [inhibitor, partial curve, poor fit]"
6,CN1CCN(C(=O)Cn2c(-c3cccs3)cc3cc(Cl)ccc32)CC1,"inconclusive: 31.6 µM [inhibitor, partial curve, poor fit]"
7,Cc1ccccc1OC(=O)CSc1nnc(-c2ccc3c(c2)OCO3)o1,"inconclusive: 35.5 µM [inhibitor, partial curve, poor fit]"
8,CCOc1ccc(N(CC)S(=O)(=O)N2CCCC(C(=O)Nc3cc(Cl)ccc3C)C2)cc1 (configuration not stated),inactive
9,Cc1[nH]c2ccccc2c1C(c1ccc(Cl)c(Cl)c1)c1c(C)[nH]c2ccccc12,"inconclusive: 12.6 µM [inhibitor, partial curve, poor fit]"
10,O=C1NCCCCCCN(Cc2ccncc2)[C@@H]2CN(S(=O)(=O)c3cccc(F)c3)CC[C@H]12,inactive
11,C[C@@H]1C(=O)O[C@H]2[C@H]1CC[C@@]1(C)Cc3sc(NC(=O)Nc4ccc(Oc5ccccc5)cc4)nc3[C@@H](C)[C@H]21,"inconclusive: 25.1 µM [inhibitor, single point]"
12,CC(C)NC(=O)NCc1nnc2n1C(C(=O)N1CCN(c3ncccn3)CC1)CC2 (configuration not stated),"inconclusive: 56.2 µM [inhibitor, partial curve, poor fit]"
13,CC(C)CCNC(=O)c1ccc(-c2ccc(N3CCSCC3)nc2)cc1,active: 22.4 µM
14,O=C(NCCc1nc(-c2cccnc2)n[nH]1)C1CNCCO1 (configuration not stated),inactive
15,COc1ccc(C(=O)OCC(=O)Nc2nnc(-c3ccccc3)o2)cc1,"inconclusive: 35.5 µM [inhibitor, partial curve, poor fit]"
16,Cc1cc2ccccc2n1CCNC(=O)c1cc(C(F)(F)F)cc(C(F)(F)F)c1,"inconclusive: 2.82 µM [inhibitor, partial curve, poor fit]"
17,CC(C)CC(=O)NC1CCCc2c1[nH]c1ccc(Cl)cc21 (configuration not stated),inactive
18,CCc1cccc2c(C(=O)CSc3n[nH]c(C(C)C)n3)c[nH]c12,inactive
19,Cc1oc2c(c1C(=O)N1CCOCC1)CN(C(=O)c1ccncc1)CC2,"inconclusive: 28.2 µM [inhibitor, partial curve, poor fit]"
20,O=C(NC1CCCN(c2cc(-c3ccccc3)[nH]n2)C1)c1c[nH]c2ccccc12 (configuration not stated),"inconclusive: 12.6 µM [inhibitor, partial curve]"
21,COc1ccc(S(=O)(=O)Nc2cc(-c3cn4ccccc4n3)ccc2C)cc1,"inconclusive: 35.5 µM [inhibitor, partial curve, poor fit]"

# — PubChem BioAssay AID1347165 (National Center for Advancing Translational Sciences (NCATS), 2019)
